Reference: PubChem BioAssay AID1030 (National Center for Advancing Translational Sciences (NCATS), 2008)
The campaign covered roughly 220,000 compounds. About 16,000 (7.3%) were called active. The shares of active, inactive and inconclusive entries below differ from those in the screen. Calls follow the shape of the dose curve; as a rule, active = well fitted inhibition curve with a large enough effect (not every such curve was filed as active); inconclusive = small, poorly fitted or top-dose-only effect, or another doubt; inactive = no such curve, though single readings can be large or run the other way. No potency is given beside an inconclusive call; the fits are too rough.

Target: Aldehyde dehydrogenase 1A1 (Homo sapiens) (UniProt P00352)
Chain of UniProt P00352 (P00352 whole entry, looked up): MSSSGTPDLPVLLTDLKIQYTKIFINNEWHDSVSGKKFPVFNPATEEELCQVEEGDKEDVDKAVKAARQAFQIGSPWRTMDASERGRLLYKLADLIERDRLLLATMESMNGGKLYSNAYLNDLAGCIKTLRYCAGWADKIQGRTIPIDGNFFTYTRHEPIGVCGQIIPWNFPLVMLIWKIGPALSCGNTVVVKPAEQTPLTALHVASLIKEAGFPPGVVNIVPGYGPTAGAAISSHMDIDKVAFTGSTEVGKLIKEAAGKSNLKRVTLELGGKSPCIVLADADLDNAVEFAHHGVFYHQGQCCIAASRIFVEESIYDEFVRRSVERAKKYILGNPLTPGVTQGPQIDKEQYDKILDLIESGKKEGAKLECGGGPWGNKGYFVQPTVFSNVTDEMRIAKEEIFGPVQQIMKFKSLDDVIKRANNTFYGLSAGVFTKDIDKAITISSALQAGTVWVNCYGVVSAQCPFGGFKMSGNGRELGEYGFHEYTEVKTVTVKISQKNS
Experiment: qHTS Assay for Inhibitors of Aldehyde Dehydrogenase 1 (ALDH1A1);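 as to activity, negative = inhibition: plate controls were no enzyme wells and a reference inhibitor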
Conditions: Purified ALDH1A1, NADH fluorescence, propionaldehyde substrate; series mostly up to 75.3 µM; activity, negative = inhibition: at the top concentration
Potency is read from the fitted curve at half-maximal effect; tags tell the direction and shape of the fitted curve.

SMILES	Potency	activity, negative = inhibition
COC(=O)CSc1ccc2c(N)c(C(=O)OC)sc2c1	inconclusive [inhibitor, single point]	
CC1CCN(CCOc2ccccc2-c2ccccc2)CC1	inconclusive [inhibitor, single point]	
O=C(O)CSC1CC(=O)N(c2cccc(Cl)c2)C1=O (stereo not drawn)	active: 10 µM	
CCOc1ccc(OCC)c(Nc2cc(C)nc3ncnn23)c1		inactive: 1.39%
COc1ccc(NC(=S)N(CCc2c(C)[nH]c3ccc(C)cc23)Cc2cccs2)cc1	inconclusive [inhibitor, partial curve]	
Clc1ccc(-c2nc3cnccn3c2NC2CCCC2)cc1	inconclusive [inhibitor, single point]	
O=C(Nc1ccccc1C(=O)OCC(=O)N1CCc2ccccc2C1)c1ccco1	inconclusive [inhibitor, partial curve]	
COC(=O)Cc1c(C)nc2nc(-c3ccc(C)cc3)[nH]n2c1=O	inconclusive [inhibitor, single point]	
CN1CCN(C2=C(Cl)C(=O)N(c3ccc(Cl)c(Cl)c3)C2=O)CC1	active: 25.1 µM	
CCO[C@@H]1OC(C(N)=O)=C[C@H](c2ccc(Br)cc2)[C@H]1CCCO		inactive: 6.57%
O=C(C1=C(O)C(=O)N(CCc2ccccc2)C1c1ccncc1)c1cc2ccccc2o1 (stereo not drawn)	active: 18.9 µM	
CC(C)OC(=O)CSc1nc2ccccc2s1	active: 11.2 µM	
O=C(Cn1nnc(-c2ccccc2F)n1)Nc1cccc2ncccc12		inactive: -2.11%
CCOc1ccc(-c2nc(CSCC(=O)NCCN3CCOCC3)c(C)o2)cc1	inconclusive [inhibitor, single point]	
CCOC(=O)C1(C)NC(c2cccs2)C2C(=O)N(c3ccccc3)C(=O)C21 (stereo not drawn)		inactive: 4.79%
Cn1nnnc1SC(C(=O)Nc1cccc(C(F)(F)F)c1)c1ccccc1 (stereo not drawn)	inconclusive [inhibitor, single point]	
COc1cc(C(=O)Nc2nnc(-c3sccc3C)s2)cc(OC)c1OC	inconclusive [inhibitor, single point]	
CCCC(=O)c1ccc2c(c1)OCCO2		inactive: 2.58%
N#Cc1c(/N=C/c2ccco2)sc2c1CCCCC2	active: 14.1 µM	
CCOC(=O)CN=C1CC(C)(C)CC2=C1Sc1ncnc(N(C)C)c1N2	inconclusive [inhibitor, single point]	
Cn1nc2c(c1C(=O)N1CCCC(C(=O)c3cc(F)ccc3F)C1)CCCC2 (stereo not drawn)	inconclusive [inhibitor, single point]	
O=S(=O)(c1ccc2c(c1)OCCO2)N1CCN(c2nc(-c3cccnc3)nc3ccccc23)CC1	inconclusive [inhibitor, single point]	
CCc1nc(N2CCCC2)c(C#N)c2c1CCCC2	inconclusive [inhibitor, partial curve]	
CCOC(=O)c1c(C)[nH]c(C(=O)COC(=O)C2(C)CC2(Cl)Cl)c1C (stereo not drawn)	inconclusive [inhibitor, single point]	
COc1cc(NC(=S)NNC(=O)CC(C)C)c(OC)cc1Cl	active: 25.1 µM	

SMILES	Potency	activity, negative = inhibition
Cc1ccc(O)c(-c2cc(C(=O)NCc3ccc4c(c3)OCO4)[nH]n2)c1	inconclusive [inhibitor, single point]	
Cn1nnnc1SCC(=O)N1CCN(Cc2ccccc2)CC1	inconclusive [inhibitor, single point]	
CCOc1ccc(C2NC(=O)C(C#N)=C(S)N2c2cccc(C)c2)cc1OC (stereo not drawn)	inconclusive [inhibitor, single point]	
O=C(OCc1cc(=O)n2cc(Br)ccc2n1)c1ccc(Cl)c(S(=O)(=O)NCc2ccccc2)c1	inconclusive [inhibitor, partial curve]	
CN(C)c1ccc(C(=O)Nc2cc(C(F)(F)F)ccc2-n2cncn2)cc1	inconclusive [inhibitor, single point]	
CC(C)(C)c1cc(C(=O)N/N=C/c2ccc(O)cc2)n(-c2ccccc2)n1	inconclusive [inhibitor, single point]	
CCN(CC)CC1CCCCN1CC(=O)N1c2ccccc2C(=O)Nc2cccnc21 (stereo not drawn)		inactive: -2.44%
CCOC(=O)c1c(N2C(=O)C=CC2=O)sc(C)c1C	active: 0.501 µM	
COc1ccc2c(-c3ccccc3)cc(SC(C)C(N)=O)nc2c1 (stereo not drawn)	inconclusive [inhibitor, partial curve]	
CCN(CC)S(=O)(=O)N1CCC(C(=O)NCCN2CCOCC2)CC1	active: 10 µM	
Cc1cc(NS(=O)(=O)c2ccc(NC(=O)c3ccc(Br)o3)cc2)nc(C)n1	inconclusive [inhibitor, single point]	
CCOC(=O)C1CCCCN1Cc1ccc(C(F)(F)F)cc1 (stereo not drawn)	inconclusive [inhibitor, single point]	
O=C(Nc1ccc(F)cc1)NC1CCN(Cc2ccccc2)CC1		inactive: 2.47%
CC(C)c1ccc(-n2cccc2/C=C2/C(=N)N3C=CSC3=NC2=O)cc1		inactive: 11.5%
Cc1nc(NC(=O)c2ccccc2)sc1-c1csc(Nc2ccc(Cl)cc2)n1	inconclusive [inhibitor, partial curve]	
Cc1ccc2c(CN3CCC(C)CC3)cc(=O)oc2c1		inactive: -11.9%
COc1ccc(OC2C=CC(c3ccccc3)OC2CO)c(C(C)(C)C)c1 (stereo not drawn)		inactive: 13.5% [at 13.5 µM]
CCCn1c(C)nc2c(N3CCC(N(C)C)C3)nc(C)nc21 (stereo not drawn)		inactive: 0.317%
O=C1CCCN1CCC1CCN(C2CC(=O)N(c3ccc(Cl)cc3)C2=O)CC1 (stereo not drawn)	active: 20 µM	
COc1ccc(-c2nc3c(-c4ccc(Cl)cc4)cnn3cc2C)cc1F	inconclusive [inhibitor, single point]	
Cc1ccc(C2C3CN(C(C)C)CC=C3C(C#N)=C(N)C2(C#N)C#N)cc1 (stereo not drawn)	inconclusive [inhibitor, partial curve]	
CCOc1ccc(/C=N/NC(=O)CN2CCCCCCC2)cc1	inconclusive [inhibitor, single point]	
Brc1ccc(-c2nn3c(-c4ccncc4)nnc3s2)o1	inconclusive [inhibitor, single point]	
CCCc1cc(C(=O)NC2CCCCC2)no1	inconclusive [inhibitor, single point]	
CCc1ccc2c(c1)CCCN2C(=O)c1ccccc1C(=O)O	inconclusive [inhibitor, single point]	

SMILES	Potency	activity, negative = inhibition
Nc1nc(CN2CCN(c3cccc(Cl)c3)CC2)nc(N2CCCc3ccccc32)n1	inconclusive [inhibitor, single point]	
Cc1ccccc1-c1ccc2ncnc(NCc3cccnc3)c2c1	inconclusive [inhibitor, partial curve]	
CCCCCC(=O)NNC(=S)NC(=O)c1ccc([N+](=O)[O-])cc1	active: 6.31 µM	
O=C(O)c1ccccc1C(=O)NNc1ccc(F)cc1F	inconclusive [inhibitor, single point]	
COC(=O)c1ccc(NC(=O)CC2C(=O)N(c3ccc(C)cc3)C(=O)N2CC(C)C)cc1 (stereo not drawn)	inconclusive [inhibitor, single point]	
N#CC1(c2ccc(NC(=O)c3ccccc3)cc2)CCCC1	active: 4.47 µM	
C#CCNC(=O)C1=C[C@H](c2ccc(Br)cc2)C[C@H](OCc2ccc(CO)cc2)O1		inactive: 4.16%
CCCCNC(=O)COC(=O)c1ccc(N(C)C)cc1		inactive: -9.68%
N#CCC(CNc1ncc(C(F)(F)F)cc1Cl)OC(=O)c1cccc([N+](=O)[O-])c1 (stereo not drawn)	inconclusive [inhibitor, single point]	
CCCn1c(SCC(=O)Nc2nc3ccccc3s2)nc2c1c(=O)n(C)c(=O)n2C	inconclusive [inhibitor, single point]	
Clc1ccccc1-c1ccc(/C=N/Nc2nncc(-c3ccccc3)n2)o1		inactive: 4.78%
CCC(C)(C)c1ccc(OCCCC[n+]2ccccc2)c(C(C)(C)CC)c1		inactive: -9.83%
COc1cc2nc(/C=C/c3ccc(N(C)C)cc3)sc2cc1SC	inconclusive [inhibitor, single point]	
CCOc1cc(S(=O)(=O)N2CC=C(c3ccc(F)cc3)CC2)c(OCC)cc1-n1cnnn1	inconclusive [inhibitor, single point]	
COc1cc2cccc(OC)c(=O)c2c(O)c1OC		inactive: 8.53%
CCN1CCN(C(=O)CN(c2ccc(F)c(Cl)c2)S(C)(=O)=O)CC1		inactive: -7.81%
CCOC(=O)CSc1nnc(-c2ccco2)n1C	inconclusive [inhibitor, single point]	
O=C(CSC1=NCCS1)NC1CCCC1		inactive: 6.66%
CCOC(=O)c1cc(-c2ccc(N3CCOCC3)cc2)nn1-c1ccccc1C(=O)O	inconclusive [inhibitor, single point]	
Cc1cccc(C(=O)Nc2ccccc2C(=O)OCc2c(C)noc2C)c1	inconclusive [inhibitor, single point]	
Cc1nnnn1/C(=C\c1ccccc1)C(=O)OCC(=O)N(C)C1CCS(=O)(=O)C1 (stereo not drawn)	inconclusive [inhibitor, partial curve]	
Cc1nc2ccccn2c1C(=O)NNS(=O)(=O)c1ccc(C(C)(C)C)cc1	active: 1.12 µM	
CCOc1ccccc1N=CC1=C(O)CC(c2ccccc2)CC1=O (stereo not drawn)	inconclusive [inhibitor, partial curve]	
